At least one peptide structure holds a part that was inferred or is arguable (an end, a ring closure or a residue). No end group written: not given here.
Assays:
E. coli ATCC 25922 = assay: Radial diffusion assay (RDA); assay type: cell-based, Eschericia coli; details: FIG. 4 gives zones in mm
S. aureus ATCC 29213 = assay: Radial diffusion assay (RDA); assay type: cell-based, Staphylococcus aureus; details: FIG. 4 gives zones in mm

Sequence	Bacteria E. coli ATCC 25922 Mean (RDA zone of clearance) (E. coli ATCC 25922)	Bacteria S. aureus ATCC 29213 Mean (RDA zone of clearance) (S. aureus ATCC 29213)
KRKKKGKGWGKKRLPCLRKY [KRK20: E]	6.19	4.64
KRKKKGKGWGKKRWPCLRKY [KRK20: F]	7.11	5.20
KRKKKGKGLGKKRLPCLRKY [KRK20: C]	4.81	3.50
KRKRKGKGLGKKKDPCLRKF [KRK20: B]	3.64	3.97
KRKKKGKGLGKKRWPCLRKY [KRK20: G]	6.20	4.53
KRKKKGKGLGKKRDPCLRKY [KRK20: A]	3.69	3.93
KRKKKGKGWGKKRDPCLRKY [KRK20: D]	4.65	4.30

— patent US20090312265A1, “NOVEL ANTIMICROBIAL PEPTIDES AND USE THEREOF” (priority 2006, published 2009)
